Assay results as given in PubChem BioAssay AID602310 (National Center for Advancing Translational Sciences (NCATS), 2012).
Screen size: about 410,000 compounds; about 310 (0.076%) were called active. The inconclusive results got no clear call from the source; some entries with a clear call stand among them for comparison. Calls follow the shape of the dose curve; as a rule, active = well fitted curve in the direction sought with a large enough effect; inconclusive = small, poorly fitted or top-dose-only effect; inactive = flat fitted curve, though single readings scatter. A potency beside an inconclusive call is a rough fit, not a confirmed value.

target: DNA dC->dU-editing enzyme APOBEC-3G (Homo sapiens) (UniProt Q9HC16); experiment: qHTS for Inhibitors of Vif-A3G Interactions: qHTS; conditions: HeLa A3G-eYFP + Vif (tagged APOBEC3G with the HIV-1 protein that degrades it), YFP fluorescence, overnight; series mostly up to 46.1 µM; activity, negative = active: at the top concentration; also: nearly all actives have a fitted effect of over 60% in size;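 as to activity, negative = active: hits raise eYFP signal because A3G escapes Vif-driven loss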
Procedure, shortened: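 HeLa cells stably expressing Vif and C-terminally eYFP-tagged A3G, seeded overnight at 37 deg C, then exposed to compound by pintool overnight at 37 deg C. Rise in yellow fluorescence (Ex 488/Em 500-530, Acumen) marks blocked Vif-driven A3G degradation.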
% is scaled to controls: 0 for no effect and ±100 for the full control effect; potency is read from the fitted curve at half-maximal effect; tags tell the direction and shape of the fitted curve.

Chain of UniProt Q9HC16 (Q9HC16 whole entry, looked up): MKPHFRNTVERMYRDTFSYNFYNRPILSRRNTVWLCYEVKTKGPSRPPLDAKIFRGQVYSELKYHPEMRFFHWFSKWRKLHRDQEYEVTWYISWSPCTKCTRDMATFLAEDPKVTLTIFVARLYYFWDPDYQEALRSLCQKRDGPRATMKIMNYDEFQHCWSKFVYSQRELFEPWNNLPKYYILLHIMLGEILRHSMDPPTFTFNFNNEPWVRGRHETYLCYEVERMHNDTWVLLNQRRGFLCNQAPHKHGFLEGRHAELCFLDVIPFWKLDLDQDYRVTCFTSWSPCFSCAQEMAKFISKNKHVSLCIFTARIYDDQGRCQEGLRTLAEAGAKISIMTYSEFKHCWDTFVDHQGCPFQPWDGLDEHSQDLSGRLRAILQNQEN

Structure (SMILES) | activity, negative = active | Potency
CC(Nc1nc(-c2ccccc2)nc2ccccc12)c1ccccc1 (stereo unspecified) | inactive: -23.8% | 
Cn1cc(-c2coc3c(C(=O)Nc4ccccc4)cccc23)cn1 |  | inconclusive: 35.5 µM [inhibitor, partial curve, poor fit]
CCCCC(=O)Nc1cc(-c2cn3cccnc3n2)ccc1C | inactive: 2.02% | 
COC(=O)c1c(C)[nH]c(C(=O)CC#N)c1C |  | inconclusive: 35.5 µM [inhibitor, single point]
COc1ccc(N(C)C(=O)c2ccc3c(Cl)c4c(nc3c2)CCCC4)c(OC)c1 | inactive: -3.82% | 
Cc1cc(N2C(=O)C(=O)/C(=C(/O)c3ccc(F)cc3)C2c2ccc(F)cc2)no1 (stereo unspecified) |  | inconclusive: 11.2 µM [inhibitor, partial curve, poor fit]
O=C(CS(=O)(=O)c1ccc(Cl)cc1)Nc1nc2ccc(Br)cc2s1 | inactive: -5.81% | 
OC[C@@H]1[C@@H](c2ccc(Cl)cc2)C(c2ccccc2)=NN1c1ccccc1 |  | inconclusive: 35.5 µM [inhibitor, partial curve, poor fit]
Cc1ccc(C(=O)c2cc([N+](=O)[O-])ccc2N2CCOCC2)cc1C |  | inconclusive: 1.12 µM [inhibitor, full curve, poor fit]
O=C(NCCC1=CCCCC1)c1coc(=O)c(Br)c1 |  | inconclusive: 35.5 µM [inhibitor, single point]
COc1cccc(C(=O)NN/C(C)=C/C(=O)C(F)(F)C(F)(F)C(F)(F)F)c1 | inactive: -6.33% | 
CCOc1cc(/C=C2\C(=O)N(c3ccc(C(N)=O)cc3)N=C2C)ccc1OC(=O)c1cccs1 | inactive: -10.5% | 
CN(C)c1ccc(C(=O)NCc2ccc3c(c2)OCO3)cc1 | inactive: -3.62% | 
O=C(NCC1CCCO1)c1nn2c(C(F)(F)F)cc(-c3cc(Br)cs3)nc2c1Br (stereo unspecified) | inactive: -9.05% | 
COc1ccc(-c2cnnc(N/N=C/c3ccc(O)c(OC)c3)n2)cc1 |  | inconclusive: 3.55 µM [inhibitor, full curve]
N=C1C(c2nc3ccccc3[nH]2)=C(O)CN1c1ccccc1 |  | inconclusive: 17.8 µM [inhibitor, partial curve, poor fit]
CCCN1CCC(=O)N(CCSc2ccc(Br)cc2)CC1 |  | inconclusive: 15.8 µM [inhibitor, partial curve, poor fit]
C#Cc1ccc2c(c1)COc1c3ccccc3nn1-2 | inactive: -14.5% | 
CCOn1c(=O)c[n+]([O-])c2ccccc21 |  | inconclusive: 22.4 µM [inhibitor, single point]
COc1ccc(N2CCN(C(=O)c3ccc(CS(=O)c4cccc(C)c4)o3)CC2)cc1 (stereo unspecified) |  | inconclusive: 11.2 µM [inhibitor, partial curve, poor fit]
COc1ccc2c(c1)c(=O)c(C(=O)c1ccc(Cl)cc1)cn2CC(=O)Nc1ccc(F)cc1 |  | inconclusive: 35.5 µM [inhibitor, single point]
CCCOc1ccc(C(=O)Nc2cccc(NC(=O)c3ccc(Cl)cc3Cl)c2)cc1 |  | active: 12.6 µM

Structure (SMILES) | activity, negative = active | Potency
CSc1cccc(CN2CCCC(C(=O)Nc3cccc(-n4cccn4)c3)C2)c1 (stereo unspecified) | inactive: 0.886% | 
CCOc1cc(C2NC(=O)NC(C)=C2C(=O)OC(C)CC)cc(Br)c1O (stereo unspecified) |  | inconclusive: 35.5 µM [inhibitor, single point]
COc1cc2c(cc1OC)CN(c1ccc([N+](=O)[O-])cc1Cl)CC2 | inactive: -4.04% | 
Nc1c(N(CCC2=CCCCC2)C(=O)COc2ccc(F)cc2Cl)c(=O)[nH]c(=O)n1Cc1ccccc1 |  | inconclusive: 20 µM [inhibitor, partial curve, poor fit]
Cc1cc(C)n(C(C[N+](=O)[O-])c2ccc(Cl)cc2)n1 (stereo unspecified) | inactive: -13.9% | 
C=CCC(Nc1ccccc1)C12C=CC(O1)C(C(=O)OC)=C2C(=O)OC (stereo unspecified) |  | inconclusive: 20 µM [inhibitor, single point]
O=C(Nc1nccs1)C1CCCN(S(=O)(=O)c2cccnc2)C1 (stereo unspecified) | inactive: 4.08% | 
Cc1ccc(C(C(=O)NC2CCCC2)N(Cc2ccc(F)cc2)C(=O)c2snc(C(N)=O)c2N)o1 (stereo unspecified) | inactive: 2.92% | 
O=C1Nc2ccc(Br)cc2/C1=C/C(=O)c1ccc2c(c1)OCO2 |  | inconclusive: 35.5 µM [inhibitor, single point]
Cc1cc(C)cc(NC(=O)[C@H](Cc2c[nH]c3ccccc23)NC(=O)[C@@H]2Cc3ccccc3CN2)c1 |  | inconclusive: 20 µM [inhibitor, single point]
Cc1ccc(C(=O)c2cc([N+](=O)[O-])ccc2N2CCOCC2)cc1 |  | inconclusive: 1.58 µM [inhibitor, full curve, poor fit]
O=C(c1c(Cl)nc2sccn12)N1CCN(c2cccc(Cl)c2)CC1 |  | inconclusive: 0.562 µM [inhibitor, full curve, poor fit]
CN(C)c1ccc(/C=C/C(=O)c2ccc(O)cc2)cc1 |  | inconclusive: 4.47 µM [inhibitor, single point]
COc1ccccc1N1CCN(C(=O)C2c3ccccc3Oc3ccccc32)CC1 |  | inconclusive: 0.562 µM [inhibitor, full curve, poor fit]
CCOC(=O)C1CCN(c2ncnc3nc[nH]c23)CC1 | inactive: -1.55% | 
COC(=O)c1c(NC(=S)Nc2cc(OC)c(Cl)cc2OC)sc2c1CCCCC2 | inactive: 0.275% | 
O=C(N/N=C/c1ccc2c(c1)OCO2)c1sc2cc(Cl)ccc2c1Cl |  | inconclusive: 3.16 µM [inhibitor, full curve, poor fit]
O=C1c2ccccc2C(=O)c2cc(N3CCCCC3)ccc21 |  | inconclusive: 6.31 µM [inhibitor, partial curve, poor fit]
COc1ccccc1-c1cc(NC=O)c2ncc(-c3cccc(C(=O)N(C)C)c3)n2c1 |  | inconclusive: 3.16 µM [inhibitor, full curve, poor fit]
COc1cc(/C=C2\SC(=S)N(Nc3ncc(C(F)(F)F)cc3Cl)C2=O)ccc1O |  | inconclusive: 17.8 µM [inhibitor, partial curve, poor fit]
CCCNc1nc(-c2ccccc2)c(C(=O)OCC)cc1C#N |  | inconclusive: 1.26 µM [inhibitor, full curve, poor fit]
CC(=O)Nc1ccc(S(=O)(=O)N2c3ccccc3C(C)=CC2(C)C)cc1 |  | inconclusive: 0.562 µM [inhibitor, full curve, poor fit]

Structure (SMILES) | activity, negative = active | Potency
CN1CCC(N(C)S(=O)(=O)c2ccc(NC(=O)COc3ccc(Br)cc3Cl)cc2)CC1 |  | inconclusive: 35.5 µM [inhibitor, single point]
CCn1c(SCC(=O)NC2CCCCC2)nnc1-c1cccs1 | inactive: -0.712% | 
COc1ccc(NC(=O)CSc2nc3n[nH]c(C)c3c(=N)n2-c2ccc(Cl)c(C)c2)cc1OC |  | inconclusive: 25.1 µM [inhibitor, single point]
CC1Cc2ccccc2N1S(=O)(=O)c1nnc(NC(=O)c2ccccc2Br)s1 (stereo unspecified) | inactive: -0.907% | 
Cc1occc1C(=O)N/N=C/c1ccc(Cl)c([N+](=O)[O-])c1 |  | inconclusive: 35.5 µM [inhibitor, single point]
Cn1cc(C2NC(=O)c3ccccc3N2)c2ccccc21 (stereo unspecified) |  | inconclusive: 2.82 µM [inhibitor, full curve]
COc1cc(/C=C/c2ccc3ccccc3n2)cc(OC)c1OC |  | inconclusive: 0.316 µM [inhibitor, full curve, poor fit]
O=c1[nH]c(-c2ccc(-c3cccc(Cl)c3)o2)nc2ccccc12 | inactive: 2.6% | 
CCOc1ccc(-c2cn[nH]c2N)cc1 |  | inconclusive: 25.1 µM [inhibitor, single point]
COc1ccc(C2=CC(c3ccc(N(C)C)cc3)n3nnnc3N2)cc1 (stereo unspecified) |  | inconclusive: 22.4 µM [inhibitor, single point]
O=C(CSc1c2c(nc3ccc(Cl)cc13)CCCC2)N1CCN(C(=O)c2ccco2)CC1 |  | inconclusive: 28.2 µM [inhibitor, single point]
O=S(=O)(Nc1ccc(NS(=O)(=O)c2ccccc2)c(Cl)c1)c1ccccc1 |  | inconclusive: 35.5 µM [inhibitor, partial curve, poor fit]
CCn1c(/C=C/c2ccc([N+](=O)[O-])o2)nc2ccccc2c1=O |  | active: 3.98 µM
COc1ccc2[nH]c(C)c(CN3CCCCC3)c(=O)c2c1 | inactive: -0.569% | 
Cc1ccc(S(=O)(=O)N(CC(=O)N/N=C/c2ccccc2C(=O)O)c2cc(Cl)cc(Cl)c2)cc1 |  | inconclusive: 11.2 µM [inhibitor, partial curve, poor fit]
COc1ccc(NC2=C(NCCO)C(=O)c3ccccc3C2=O)cc1 |  | inconclusive: 7.94 µM [inhibitor, partial curve, poor fit]
COc1cc(-c2cnc3c(NC=O)cc(-c4ccc(S(C)(=O)=O)cc4)cn23)cc(OC)c1OC |  | inconclusive: 2.51 µM [inhibitor, full curve, poor fit]
CN(C)c1ccc(/C=C/c2ccnc3ccc(F)cc23)cc1 |  | inconclusive: 12.6 µM [inhibitor, single point]
COC(=O)c1cc2oc(C)cc2n1Cc1cccc(Cl)c1 |  | inconclusive: 35.5 µM [inhibitor, partial curve, poor fit]
Cc1cc(NC(=O)CSc2nc(-c3cccs3)cc(C(F)(F)F)n2)no1 |  | inconclusive: 1.41 µM [inhibitor, full curve, poor fit]
C=CCn1c(NC(=O)c2ccccc2Cl)c(C#N)c2nc3ccccc3nc21 |  | inconclusive: 25.1 µM [inhibitor, single point]
COc1ccc(NC(=O)C#Cc2ccccc2)cc1 |  | inconclusive: 31.6 µM [inhibitor, partial curve, poor fit]
